# Results from the supplement of paper PMC8728848.
# The list shows a part of the results.
# Legend:
# Assay in all cases: glycan array binding signal (z-score within array); higher = stronger binding
# Conditions in all cases: glycan notation: IUPAC condensed, linker removed
# [1] = molecular target: Gal(b1-4)GlcNAc(b1-3)Gal(b1-4)GlcNAc(b1-6)[Gal(b1-3)]GalNAc
# In short: (§1)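 Negative Z-scores can be read as non-binding. The Z-score is calculated within each array and then averaged across arrays of one protein sequence at different concentrations or buffers and across linkers. Arrays, 3228 in all, were curated from the Consortium for Functional Glycomics database and kept only where the protein sequence was available.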
# [2] = molecular target: Gal(b1-4)GlcNAc(b1-3)Gal(b1-4)[Fuc(a1-3)]GlcNAc(b1-3)Gal(b1-4)[Fuc(a1-3)]GlcNAc
# In short: as §1
# [3] = molecular target: Gal(b1-4)GlcNAc(b1-3)GalNAc
# In short: as §1
# [4] = molecular target: Gal(b1-4)GlcNAc(b1-3)[Fuc(a1-3)GlcNAc(b1-6)]Gal(b1-4)Glc
# In short: as §1
# [5] = molecular target: Gal(b1-4)GlcNAc(b1-3)[Gal(b1-4)GlcNAc(b1-6)]Gal(b1-4)GlcNAc
# In short: as §1
# [6] = molecular target: Gal(b1-4)GlcNAc(b1-3)[GlcNAc(b1-6)]Gal(b1-4)GlcNAc
# In short: as §1
# [7] = molecular target: Gal(b1-4)GlcNAc(b1-6)Gal(b1-4)GlcNAc
# In short: as §1
# [8] = molecular target: Gal(b1-4)GlcNAc(b1-6)GalNAc
# In short: as §1
# [9] = molecular target: Gal(b1-4)GlcNAc(b1-6)[Gal(b1-3)]GalNAc
# In short: as §1
# [10] = molecular target: Gal(b1-4)GlcNAc(b1-6)[Gal(b1-4)GlcNAc(b1-3)]GalNAc
# In short: as §1
# Gal(b1-4)GlcNAc6P = molecular target: Gal(b1-4)GlcNAc6P
# In short: as §1
# Gal(b1-6)Gal = molecular target: Gal(b1-6)Gal
# In short: as §1
# Gal3S(b1-3)GalNAc = molecular target: Gal3S(b1-3)GalNAc
# In short: as §1
# Gal3S(b1-3)GlcNAc = molecular target: Gal3S(b1-3)GlcNAc
# In short: as §1
# [11] = molecular target: Gal3S(b1-3)[Fuc(a1-4)]GlcNAc
# In short: as §1
# Gal3S(b1-4)Glc = molecular target: Gal3S(b1-4)Glc
# In short: as §1
# Gal3S(b1-4)Glc6S = molecular target: Gal3S(b1-4)Glc6S
# In short: as §1
# Gal3S(b1-4)GlcNAc = molecular target: Gal3S(b1-4)GlcNAc
# In short: as §1
# [12] = molecular target: Gal3S(b1-4)[Fuc(a1-3)]Glc6S
# In short: as §1
# [13] = molecular target: Gal3S(b1-4)[Fuc(a1-3)]GlcNAc
# In short: as §1
# [14] = molecular target: Gal3S(b1-4)[Fuc(a1-3)]GlcNAc6S
# In short: as §1
# Gal3S4S(b1-4)GlcNAc = molecular target: Gal3S4S(b1-4)GlcNAc
# In short: as §1
# Gal3S6S(b1-4)GlcNAc = molecular target: Gal3S6S(b1-4)GlcNAc
# In short: as §1
# Gal3S6S(b1-4)GlcNAc6S = molecular target: Gal3S6S(b1-4)GlcNAc6S
# In short: as §1
# Gal4S(b1-4)GlcNAc = molecular target: Gal4S(b1-4)GlcNAc
# In short: as §1
# Gal4S6S(b1-4)GlcNAc = molecular target: Gal4S6S(b1-4)GlcNAc
# In short: as §1
# Gal6P(b1-4)GlcNAc = molecular target: Gal6P(b1-4)GlcNAc
# In short: as §1
# Gal6S(b1-3)GlcNAc = molecular target: Gal6S(b1-3)GlcNAc
# In short: as §1
# Gal6S(b1-3)GlcNAc6S = molecular target: Gal6S(b1-3)GlcNAc6S
# In short: as §1
# Gal6S(b1-4)Glc = molecular target: Gal6S(b1-4)Glc
# In short: as §1
# Gal6S(b1-4)Glc6S = molecular target: Gal6S(b1-4)Glc6S
# In short: as §1
# Gal6S(b1-4)GlcNAc = molecular target: Gal6S(b1-4)GlcNAc
# In short: as §1
# Gal6S(b1-4)GlcNAc6S = molecular target: Gal6S(b1-4)GlcNAc6S
# In short: as §1
# GalNAc(a1-3)Gal = molecular target: GalNAc(a1-3)Gal
# In short: as §1
# GalNAc(a1-3)GalNAc = molecular target: GalNAc(a1-3)GalNAc
# In short: as §1
# [15] = molecular target: GalNAc(a1-3)GalNAc(b1-3)Gal(a1-4)Gal(b1-4)Glc
# In short: as §1
# [16] = molecular target: GalNAc(a1-3)GalNAc(b1-3)Gal(a1-4)Gal(b1-4)GlcNAc
# In short: as §1
binder,measurement,setting,value
Cohesin-marm-DC-ASGPR-CRD (protein) LDITSHHHHHHDDLDAVRIKVDTVNAKPGDTVRIPVRFSGIPSKGIANCDFVYSYDPNVLEIIEIEPGDIIVDPNPDKSFDTAVYPDRKIIVFLFAEDSGTGAYAITKDGVFATIVAKVKEGAPNGLSVIKFVEVGGFANNDLVEQKTQFFDGGVNVGDTTEPATPTTPVTTPTTTDDLDAASCPINWVEHQGSCYWFSRSGKTWPEAERYCQLENTHLVVINSREEQNFVQAHLGSAYTWMGLSDPEGVWKWVDGTDYSSGFQNWKPGQPDDWQGHGLGGGEDCAHFHPDGRWNDDVCQRSYHWVCEAGLTQASQDSH,glycan array binding signal (z-score),[1],-0.41
same,glycan array binding signal (z-score),[2],-0.355
same,glycan array binding signal (z-score),[3],-0.449
same,glycan array binding signal (z-score),[4],-0.423
same,glycan array binding signal (z-score),[5],-0.424
same,glycan array binding signal (z-score),[6],-0.447
same,glycan array binding signal (z-score),[7],-0.403
same,glycan array binding signal (z-score),[8],1.25
same,glycan array binding signal (z-score),[9],1
same,glycan array binding signal (z-score),[10],-0.405
same,glycan array binding signal (z-score),Gal(b1-4)GlcNAc6P,-0.439
same,glycan array binding signal (z-score),Gal(b1-6)Gal,-0.4
same,glycan array binding signal (z-score),Gal3S(b1-3)GalNAc,-0.397
same,glycan array binding signal (z-score),Gal3S(b1-3)GlcNAc,-0.393
same,glycan array binding signal (z-score),[11],-0.408
same,glycan array binding signal (z-score),Gal3S(b1-4)Glc,0.089
same,glycan array binding signal (z-score),Gal3S(b1-4)Glc6S,-0.23
same,glycan array binding signal (z-score),Gal3S(b1-4)GlcNAc,-0.385
same,glycan array binding signal (z-score),[12],-0.395
same,glycan array binding signal (z-score),[13],-0.433
same,glycan array binding signal (z-score),[14],-0.069
same,glycan array binding signal (z-score),Gal3S4S(b1-4)GlcNAc,-0.425
same,glycan array binding signal (z-score),Gal3S6S(b1-4)GlcNAc,-0.378
same,glycan array binding signal (z-score),Gal3S6S(b1-4)GlcNAc6S,-0.314
same,glycan array binding signal (z-score),Gal4S(b1-4)GlcNAc,-0.444
same,glycan array binding signal (z-score),Gal4S6S(b1-4)GlcNAc,-0.448
same,glycan array binding signal (z-score),Gal6P(b1-4)GlcNAc,-0.452
same,glycan array binding signal (z-score),Gal6S(b1-3)GlcNAc,-0.379
same,glycan array binding signal (z-score),Gal6S(b1-3)GlcNAc6S,-0.376
same,glycan array binding signal (z-score),Gal6S(b1-4)Glc,-0.365
same,glycan array binding signal (z-score),Gal6S(b1-4)Glc6S,-0.365
same,glycan array binding signal (z-score),Gal6S(b1-4)GlcNAc,-0.404
same,glycan array binding signal (z-score),Gal6S(b1-4)GlcNAc6S,-0.421
same,glycan array binding signal (z-score),GalNAc(a1-3)Gal,2.89
same,glycan array binding signal (z-score),GalNAc(a1-3)GalNAc,2.55
same,glycan array binding signal (z-score),[15],2.34
same,glycan array binding signal (z-score),[16],2.78
